In the antibiotic and cytotoxicity screens of Wong et al. (2023) one finds cytotoxicity call data, which are given here for 40 compounds.

The other results are listed elsewhere or left out.

The experiment relates to HepG2. Put plainly: cytotoxicity call (relative viability < 0.9). To be noted: 10 µM.
For `COc1ccc(CNC(=O)N(C)C[C@@H]2OCc3ccccc3-c3c(n(C)c4ccccc34)C(=O)N([C@@H](C)CO)C[C@@H]2C)cc1`, the cytotoxicity call is “inactive”.

Take `COc1ccc(CN(C)C[C@@H]2OCCCC[C@H](C)Oc3ccc(NS(=O)(=O)c4ccc(F)cc4)cc3C(=O)N([C@H](C)CO)C[C@H]2C)cc1`: the cytotoxicity call was “inactive”.

Turning to `COc1ccc(NC(=O)Nc2ccc3c(c2)CC(=O)N([C@H](C)CO)C[C@H](C)[C@@H](CN(C)Cc2ccc(Oc4ccccc4)cc2)O3)cc1`, the cytotoxicity call was “inactive”.

As for `O=C(COc1ccc(S(=O)(=O)N2CCOCC2)cc1)NCCCn1ccnc1`, the cytotoxicity call is “inactive”.

`CSC[C@H]1O[C@H](n2ccc3c(N)ncnc32)[C@@H](O)[C@H]1O`: the cytotoxicity call is “inactive”.

As to `C[C@@H]1CN([C@H](C)CO)C(=O)Cc2cc(NC(=O)CCCCCC(=O)Nc3ccccc3N)ccc2O[C@@H]1CN(C)C(=O)Nc1ccc(C(F)(F)F)cc1`, the cytotoxicity call is “inactive”.

In the case of `C[C@@H]1CN([C@@H](C)CO)C(=O)c2cc(NC(=O)Nc3ccc(C(F)(F)F)cc3)ccc2O[C@@H](C)CCCCO[C@H]1CN(C)Cc1ccc2c(c1)OCO2`, the cytotoxicity call was “active”.

On to `CN1C(=O)c2cc(NC(=O)c3cnccn3)ccc2OC[C@H]2O[C@@H](CC(=O)NCC3CCCCC3)CC[C@H]21`, for which the cytotoxicity call was “inactive”.

On to `COc1ccc(S(=O)(=O)N(C)C[C@@H]2OCCCC[C@H](C)Oc3ccc(NC(=O)Nc4ccccc4)cc3C(=O)N([C@H](C)CO)C[C@H]2C)cc1`, for which the cytotoxicity call is “inactive”.

With `CC(C)NC(=O)N1Cc2cc(C(=O)NC3CCCCC3)nc(-c3cccc(-c4cccnc4)c3)c2[C@H]1CCO`, the cytotoxicity call was “inactive”.

As for `Cc1noc(C)c1NC(=O)N(C)C[C@@H]1Oc2ccc(NC(=O)c3ccncc3)cc2CC(=O)N([C@@H](C)CO)C[C@H]1C`, the cytotoxicity call is “inactive”.

For `O=C(O)CSc1ncnc2nc[nH]c12`, the cytotoxicity call was “inactive”.

Regarding `C[C@H]1CN([C@@H](C)CO)S(=O)(=O)c2ccc(C#Cc3ccc(F)cc3)cc2O[C@H]1CN(C)S(=O)(=O)c1ccc(F)cc1`, the cytotoxicity call is “inactive”.

Consider `C[C@@H]1CC[C@H](C)N1c1cc(C(F)(F)F)cc(C(F)(F)F)c1`, for which the cytotoxicity call was “inactive”.

`C[C@@H](OCc1ccccc1)[C@H]1NC(=O)[C@@]23C(=O)N[C@@H](Cc4ccccc4)[C@H]2[C@H](C)[C@@]2(C)O[C@H]2[C@@H]3/C=C/C/C=C\CNC(=O)CNC1=O`: the cytotoxicity call is “inactive”.

Turning to `O=C(CN1CCOCC1)NCC[C@H]1CC[C@H](NS(=O)(=O)c2ccc(Cl)cc2)[C@H](CO)O1`, the cytotoxicity call was “inactive”.

As for `COc1ccc(CCN(C)CCCOc2ccc(S(=O)(=O)c3[nH]c4ccccc4c3C(C)C)cc2)cc1OC`, the cytotoxicity call was “active”.

In the case of `O=C(CCCCCCC(=O)Nc1ccccc1O)N/N=C/c1cc(Br)c(O)c(Br)c1`, the cytotoxicity call is “inactive”.

As for `C[N+](C)(C)CCCC[C@@H]1NC(=O)[C@H]2C[C@@H](C(=O)NCCCCCCNC(=O)CS)[C@@H](c3ccc(O)cc3)N2C1=O`, the cytotoxicity call is “inactive”.

Turning to `CO[C@H]1CN(C)C(=O)c2cc(NS(C)(=O)=O)ccc2OC[C@@H](C)N(C(=O)C2CCOCC2)C[C@H]1C`, the cytotoxicity call is “inactive”.

In the case of `C[C@@H]1CN([C@H](C)CO)C(=O)Cc2cc(NC(=O)Nc3ccc(F)cc3)ccc2O[C@@H]1CN(C)C(=O)Nc1ccc(C(F)(F)F)cc1`, the cytotoxicity call was “inactive”.

`C[C@H](CO)N1C[C@H](C)[C@H](CN(C)C(=O)Nc2ccccc2)Oc2ccc(NS(C)(=O)=O)cc2CC1=O`: the cytotoxicity call is “inactive”.

Turning to `C=CC[C@H](CC(=O)N(CCO)Cc1ccccc1)C(=O)N[C@H](COC(=O)[C@@H](CC=C)Cc1ccc(F)cc1)C(C)(C)C`, the cytotoxicity call is “inactive”.

As for `C[C@@H]1COCS(=O)(=O)N1`, the cytotoxicity call is “inactive”.

`C[C@@H]1CN([C@@H](C)CO)C(=O)c2cccc(NC(=O)Nc3ccccc3)c2O[C@H]1CN(C)S(C)(=O)=O`: the cytotoxicity call was “inactive”.

As for `O=C(/C=C/c1ccc(O)c(O)c1)O[C@H]1[C@H](O)C[C@](OC(=O)/C=C/c2ccc(O)c(O)c2)(C(=O)O)C[C@H]1O`, the cytotoxicity call is “inactive”.

As for `Cc1noc(C)c1S(=O)(=O)Nc1cccc2c1O[C@H](CN(C)Cc1ccncc1)[C@H](C)CN([C@@H](C)CO)C2=O`, the cytotoxicity call was “inactive”.

Turning to `COc1ccc(S(=O)(=O)Nc2ccc3c(c2)C(=O)N([C@@H](C)CO)C[C@@H](C)[C@H](CN(C)S(=O)(=O)c2ccc(Cl)cc2)OCCCC[C@@H](C)O3)cc1`, the cytotoxicity call is “inactive”.

With `C[C@H](CO)N1C[C@H](C)[C@@H](CN(C)C(=O)Nc2ccc(C(F)(F)F)cc2)Oc2ccc(NC(=O)Cc3ccccc3)cc2CC1=O`, the cytotoxicity call is “inactive”.

For `CC(C)=CCC1=C(O)C(=O)c2ccccc2C1=O`, the cytotoxicity call was “inactive”.

`CCCC12CN3CC(CCC)(CN(C1)C3[C@@H](O)[C@@H](O)[C@@H](O)CO)C2=O` (stereo not given in full): the cytotoxicity call was “inactive”.

For the compound `Cc1ccc(S[C@]2(C(=O)NCC(C)C)CC(=O)N(Cc3cc(C(F)(F)F)cc(C(F)(F)F)c3)[C@@H]2c2ccc(CO)cc2)cc1`, the cytotoxicity call is “inactive”.

For `COc1ccc2c3c(n(c2c1)C)[C@@H](CO)N(C[C@]13CN(C1)C(=O)C1CCOCC1)C(=O)C1CCOCC1`, the cytotoxicity call was “inactive”.

`Cc1ccc(S(=O)(=O)Nc2ccc3c(c2)C(=O)N([C@H](C)CO)C[C@H](C)[C@H](CN(C)Cc2ccc4c(c2)OCO4)OCCCC[C@H](C)O3)cc1`: the cytotoxicity call is “active”.

For `OCCN1CCN(c2ncnc3c2ncn3[C@H]2CN(Cc3cccnc3)C[C@@H](CO)O2)CC1`, the cytotoxicity call was “inactive”.

For `C[C@H]1CN([C@@H](C)CO)C(=O)Cc2cc(NC(=O)CCC(F)(F)F)ccc2O[C@@H]1CN(C)Cc1ccc(Cl)c(Cl)c1`, the cytotoxicity call is “inactive”.

Consider `C[C@H]1CCc2c(C(=O)O)csc2C1`, for which the cytotoxicity call is “inactive”.

Regarding `C=CC[C@@H](CC(=O)N(CCO)Cc1ccccc1)C(=O)N[C@@H](COC(=O)[C@@H](CC=C)Cc1ccc(F)cc1)Cc1c[nH]c2ccccc12`, the cytotoxicity call was “inactive”.

In the case of `CC(C)NC(=O)N[C@@H]1C=C[C@@H](CC(=O)NCCCN(C)C)O[C@H]1CO`, the cytotoxicity call was “inactive”.

In the case of `COc1ccc(S(=O)(=O)Nc2ccc3c(c2)C(=O)N([C@H](C)CO)C[C@H](C)[C@H](CN(C)S(C)(=O)=O)O3)cc1`, the cytotoxicity call was “inactive”.
